The values that follow come from publication PMC4336329 (PLoS ONE, 2015).

Out of some 310,000 compounds screened, about 14,000 (4.5%) showed an effect of 50% or more. The effect is printed as a negative number. The list shows a part of the results.
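Further: peak tail current of the secondary pulse compared with the same well before compound.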

Sequence of human ether-à-go-go-related gene (hERG) potassium channel (Q12809 whole entry, looked up): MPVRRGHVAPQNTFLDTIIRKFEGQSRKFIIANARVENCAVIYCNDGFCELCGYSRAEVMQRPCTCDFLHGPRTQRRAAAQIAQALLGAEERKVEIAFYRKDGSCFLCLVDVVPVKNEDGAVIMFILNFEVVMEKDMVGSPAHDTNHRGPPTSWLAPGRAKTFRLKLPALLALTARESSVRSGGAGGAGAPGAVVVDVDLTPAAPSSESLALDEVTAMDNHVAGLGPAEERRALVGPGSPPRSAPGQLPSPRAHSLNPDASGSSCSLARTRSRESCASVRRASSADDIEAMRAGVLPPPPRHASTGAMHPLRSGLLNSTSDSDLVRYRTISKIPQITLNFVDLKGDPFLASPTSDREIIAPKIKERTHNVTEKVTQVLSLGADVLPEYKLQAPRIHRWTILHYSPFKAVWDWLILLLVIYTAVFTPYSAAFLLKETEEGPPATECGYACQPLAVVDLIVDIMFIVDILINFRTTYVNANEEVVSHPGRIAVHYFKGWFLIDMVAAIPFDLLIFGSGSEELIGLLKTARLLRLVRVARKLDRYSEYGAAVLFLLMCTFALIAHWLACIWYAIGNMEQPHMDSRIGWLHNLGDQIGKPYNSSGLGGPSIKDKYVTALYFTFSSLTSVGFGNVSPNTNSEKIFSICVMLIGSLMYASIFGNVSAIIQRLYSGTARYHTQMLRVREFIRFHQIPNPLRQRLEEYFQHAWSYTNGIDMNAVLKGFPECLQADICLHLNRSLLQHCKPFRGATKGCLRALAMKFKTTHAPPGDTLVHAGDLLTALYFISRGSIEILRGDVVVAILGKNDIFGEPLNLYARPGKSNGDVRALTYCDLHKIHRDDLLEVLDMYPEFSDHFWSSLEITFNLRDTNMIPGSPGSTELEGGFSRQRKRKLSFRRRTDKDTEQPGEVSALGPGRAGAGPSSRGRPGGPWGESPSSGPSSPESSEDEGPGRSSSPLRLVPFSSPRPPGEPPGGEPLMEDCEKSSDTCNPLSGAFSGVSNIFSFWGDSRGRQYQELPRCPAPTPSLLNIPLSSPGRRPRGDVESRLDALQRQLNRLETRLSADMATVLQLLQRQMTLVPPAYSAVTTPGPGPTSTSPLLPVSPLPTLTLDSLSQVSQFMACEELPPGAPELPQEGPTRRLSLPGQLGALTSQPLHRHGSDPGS

The experiment addresses human ether-à-go-go-related gene (hERG) potassium channel (human, UniProt Q12809). Kind of experiment: primary screen, population patch clamp on CHO cells stably expressing hERG.
`CCN(C(=O)COC(=O)COc1ccc2c(C)cc(=O)oc2c1)C1CCS(=O)(=O)C1` (centres unmarked): the “hERG current change (%, negative = inhibition) at 10uM” value worked out at 0.368%.
On to `Cc1cc(C)c2c(c1)-c1c(ssc1=S)C(C)(C)N2C(=O)CN1C(=O)c2ccccc2C1=O`, for which the “hERG current change (%, negative = inhibition) at 10uM” value is recorded as -22%.
The result for `O=C(Nc1cccc(C(=O)N2CCOCC2)c1)c1ccccc1Cl` reads -17%; that for `N#Cc1c(NCCCO)nc(NCc2ccccc2)c2c1CCN(Cc1ccccc1)C2`, -43.4%; that for `CN(C(=O)COC(=O)c1cc(S(=O)(=O)N2CCCCC2)ccc1Cl)c1ccccc1`, -7.91%.
Then `O=C(NCCCn1ccnc1)c1cc2c(s1)CCCC2`, with -1.81%; and `CCOC(=O)c1ccc(NC(=S)N2CCCC(C(=O)N3CCCC3)C2)cc1` (centres unmarked), with -9.48%; and `CC(C)c1ccc(OCC(=O)Nc2ccc3oc(=O)ccc3c2)cc1`, with 14.3%.
Regarding `O=C(CSc1ccc([N+](=O)[O-])cn1)Nc1ccc2c(c1)OCCO2`, the “hERG current change (%, negative = inhibition) at 10uM” value came to 12.8%.
The result for `CCOc1ccc(NCc2nnc(SCC(=O)Nc3nc(-c4ccccc4)cs3)n2-c2ccccc2)cc1` reads 0.783%; that for `COc1ccc(C2NC(=O)NC3=C2C(=O)CCC3)cc1` (centres unmarked), 13.7%.
Take `CC1CC(C)CN(S(=O)(=O)c2cc(C(=O)O)c(Cl)s2)C1` (centres unmarked): the “hERG current change (%, negative = inhibition) at 10uM” value was 6.3%.
Then `CCn1cc(C(=O)N[C@H](C(=O)NCCCOC)C(C)C)c(=O)c2cc3c(cc21)OCO3`, with 13.1%; and `COc1ccc2[nH]c(=O)c(CN(Cc3cccnc3)S(=O)(=O)c3ccccc3F)cc2c1`, with 9.74%; and `Cc1cc(C)c2nc(NC(=O)C3CSC4(C)CCC(=O)N34)sc2c1` (centres unmarked), with 24.2%.
`CC(C)(C)c1ccc(-c2n[nH]c(=S)n2CCCN2CCOCC2)cc1`: the “hERG current change (%, negative = inhibition) at 10uM” value was determined as 24.9%.
Consider `CCOc1ccc(OCC(=O)Nc2ccc(S(=O)(=O)Nc3cc(C)nc(C)n3)cc2)cc1`, for which the “hERG current change (%, negative = inhibition) at 10uM” value stood at 16.4%.
Then `Cc1nn(CC(=O)N2CCC(C)CC2)c(=O)c2nn(-c3ccccc3)c(C)c12`, with 10.2%; and `O=C(N/N=C/c1cc(Br)c(O)c(Br)c1O)c1cccnc1`, with -2.32%; and `CSC1=N/C(=C\c2ccc(Cl)cc2)C(=O)N1N(C)C`, with 2.92%.
The result for `O=C(CSc1ccccc1C(=O)O)NC1CCCCCCC1` reads 17.6%.
In the case of `c1ccc(-n2c(-c3ccncc3)nnc2N2CCOCC2)cc1`, the “hERG current change (%, negative = inhibition) at 10uM” value came to 16.9%.
Then `NC(=O)C1CCN(Cc2nc3ccccc3c(=O)[nH]2)CC1`, with 6.56%; and `O=C(c1ccc(Br)cc1)N1CCCc2ccccc21`, with -6.19%; and `COc1ccc(/C=N/NC(=O)CCCC(=O)NC2CCCCC2)cc1`, with 5.06%.
On to `CCC(=O)Nc1c2c(nn1-c1ccc([N+](=O)[O-])cc1)CS(=O)(=O)C2`, for which the “hERG current change (%, negative = inhibition) at 10uM” value stood at 10%.
Then `C=CCc1cc(Cl)ccc1OC(=O)Nc1cccc(Cl)c1`, with 2.47%; and `COc1cc(/C=C2\C(=O)ON=C2c2ccccc2)cc(Cl)c1O`, with -49.9%.
On to `Cc1nc(-c2cccc(NS(=O)(=O)c3ccccc3)c2)cs1`, for which the “hERG current change (%, negative = inhibition) at 10uM” value is -13.6%.
Then `Cc1[nH]nc2c1C(c1ccc(-c3ccccc3C#N)o1)C(C#N)=C(N)O2` (centres unmarked), with 13.9%.
With `Cc1ccc2cc(CCNC(=O)c3ccco3)c(=O)[nH]c2c1`, the “hERG current change (%, negative = inhibition) at 10uM” value is listed as -13.6%.
As to `CN1C(=O)CC(n2c(CO)nc3ccccc32)C1=O` (centres unmarked), the “hERG current change (%, negative = inhibition) at 10uM” value is given as 3.49%.
Take `COc1cc(/C=C2\C(=N)N3N=CSC3=NC2=O)cc(Br)c1OC(=O)c1ccco1`: the “hERG current change (%, negative = inhibition) at 10uM” value is listed as 8.78%.
Take `CCOC(=O)c1ccc(CC(=O)c2ccc(O)cc2O)o1`: the “hERG current change (%, negative = inhibition) at 10uM” value was -4.15%.
Take `CC1=C(C)CC(C(=O)NCCc2ccc(F)cc2)C(C(=O)O)C1` (centres unmarked): the “hERG current change (%, negative = inhibition) at 10uM” value is listed as -2.21%.
The result for `COc1ccc(N(CC(=O)NC2CCCCC2)C(=O)CNC(=O)c2cccs2)cc1OC` reads 8.73%; that for `O=S(=O)(NCc1ccc(F)cc1)c1ccc(-c2cnc(C3CC3)o2)cc1`, 13.5%.
Then `CC(Oc1ccc(Cl)cc1)C(=O)N1CCN(C(=O)c2ccco2)CC1` (centres unmarked), with -29.5%.
The result for `COc1ccc(/C=C(\NC(=O)c2cccs2)C(=O)Nc2cccc3ccccc23)cc1OC` reads -7.06%; that for `CCOc1ccccc1Oc1coc2cc(OC)ccc2c1=O`, 14.5%.
As for `CCCN1CCN(S(=O)(=O)c2cn(C)nc2C)CC1`, the “hERG current change (%, negative = inhibition) at 10uM” value is 22%.
The result for `COc1ccc(C(O)(C(=O)NNc2ccc(C)cc2)c2cccs2)cc1` (centres unmarked) reads 1.33%; that for `CCn1c(CNC(=O)c2cccc(C)c2)nnc1SCC(=O)Nc1nnc(C)s1`, 15.4%; that for `CN(CC(=O)Nc1cccc(F)c1)C(=O)Cn1c(=O)cnc2ccccc21`, -10.7%.
Turning to `COC(=O)c1c(C)n(-c2ccccc2)c2ccc(O)cc12`, the “hERG current change (%, negative = inhibition) at 10uM” value is on record as -7.31%.
Regarding `N/C(Cc1ccc([N+](=O)[O-])cc1)=N\OC(=O)COc1ccc2ccccc2c1`, the “hERG current change (%, negative = inhibition) at 10uM” value is given as -14.4%.
Turning to `Cc1onc(-c2c(F)cccc2Cl)c1C(=O)OCC(=O)NCc1ccccc1`, the “hERG current change (%, negative = inhibition) at 10uM” value is -27.8%.
Then `COc1ccccc1C(=O)N/C(=C\c1cn(S(=O)(=O)N(C)C)c2ccccc12)C(=O)N1CCOCC1`, with 14.9%; and `CCCCC1CCC(C(=O)NCC(c2ccco2)N2CCOCC2)CC1` (centres unmarked), with 2.06%.
The result for `O=c1cc(N2CCOCC2)[nH]c(=O)n1Cc1ccc(F)cc1` reads 20%; that for `CCC(CC)COC(=O)C1=C(C)NC(=O)NC1c1cccc([N+](=O)[O-])c1` (centres unmarked), 15.1%; that for `OC(CNc1ncnc2sccc12)c1ccccc1` (centres unmarked), 2.14%.
Then `CN(c1ccc(Cl)cc1)S(=O)(=O)c1nnc(NC(=O)c2ccco2)s1`, with 16.9%; and `COc1ccc(C2/C(=C(/O)c3ccc4c(c3)CC(C)O4)C(=O)C(=O)N2CCN2CCOCC2)cc1` (centres unmarked), with -4.07%; and `COC(=O)c1ccsc1NC(=O)c1cccc(OC)c1`, with 1.44%.
On to `C=CCc1cc(C=C2C(=O)NC(=O)NC2=O)cc(OC)c1OCc1ccc(C(=O)O)cc1`, for which the “hERG current change (%, negative = inhibition) at 10uM” value is listed as 2.75%.
